Reference: PubChem BioAssay AID488969 (Vanderbilt High Throughput Screening Facility, 2010)
Whole data set: some 110,000 compounds, median “z-score” near -0.1, cut for the highest 2% near 2. Some of the results follow.

Molecular target: Metabotropic glutamate receptor 8 (Rattus norvegicus) (UniProt P70579)
Assay: mGluR8 Gi/Go-coupled signaling modulation – cell-based, rat, thallium flux, HTS, primary screen (AID 488969)
Settings: HEK293 rat mGluR8, GIRK (G protein-gated inwardly rectifying potassium channel) thallium flux, FluoZin2; at 10 µM; stronger effect = higher value; submaximal glutamate (EC20) added with thallium

Chain of UniProt P70579 (P70579 whole entry, looked up): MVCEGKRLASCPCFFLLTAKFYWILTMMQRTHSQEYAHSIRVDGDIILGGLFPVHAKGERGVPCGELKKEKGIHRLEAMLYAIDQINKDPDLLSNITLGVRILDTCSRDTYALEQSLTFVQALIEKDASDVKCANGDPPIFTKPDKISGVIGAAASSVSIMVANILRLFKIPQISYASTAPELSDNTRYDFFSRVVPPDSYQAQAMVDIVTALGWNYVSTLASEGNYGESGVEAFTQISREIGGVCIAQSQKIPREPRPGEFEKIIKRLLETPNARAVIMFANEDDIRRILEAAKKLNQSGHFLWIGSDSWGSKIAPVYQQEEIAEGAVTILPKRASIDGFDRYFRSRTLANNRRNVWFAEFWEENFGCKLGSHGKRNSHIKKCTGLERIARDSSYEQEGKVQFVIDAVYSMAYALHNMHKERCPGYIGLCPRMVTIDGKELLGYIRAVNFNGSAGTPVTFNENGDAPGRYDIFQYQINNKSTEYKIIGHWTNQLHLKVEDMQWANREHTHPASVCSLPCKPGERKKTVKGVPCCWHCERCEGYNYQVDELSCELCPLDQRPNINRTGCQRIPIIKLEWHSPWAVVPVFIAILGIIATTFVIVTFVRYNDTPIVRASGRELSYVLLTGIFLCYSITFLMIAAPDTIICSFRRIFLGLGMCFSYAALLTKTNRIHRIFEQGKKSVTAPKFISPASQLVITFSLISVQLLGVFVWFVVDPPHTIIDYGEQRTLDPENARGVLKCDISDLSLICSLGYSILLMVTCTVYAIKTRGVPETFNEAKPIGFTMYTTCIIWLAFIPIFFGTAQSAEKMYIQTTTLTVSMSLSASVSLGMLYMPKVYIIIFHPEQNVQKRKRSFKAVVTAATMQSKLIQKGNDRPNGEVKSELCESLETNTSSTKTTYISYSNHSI

Row | Structure (SMILES) | z-score
1 | CC1(C)CC2CC(C)(CN2C(=O)c2cc(-c3ccccc3O)on2)C1 (centres undefined) | 0.0947
2 | NS(=O)(=O)c1ccc(NC(=S)NC(=O)/C=C/c2ccco2)cc1 | -0.0753
3 | O=C(c1cc(-c2ccc(Cl)cc2Cl)on1)N1CCOCC1 | -0.321
4 | CC(=O)Nc1ccc(S(=O)(=O)N2CCC(NC(C)=O)(c3cccc(F)c3)CC2)cc1 | -0.024
5 | Cc1cc(-c2nc3cccnc3s2)ccc1NS(=O)(=O)c1ccc2c(c1)OCCO2 | -0.0979
6 | O=C(c1ccc2c(c1)OCO2)N1CCN=C1SCc1cccnc1 | -0.333
7 | COC(=O)c1ccccc1NC1OC(=O)c2ccccc21 (centres undefined) | -0.205
8 | CC1CCN(CC(O)COCCC23CC4CC(CC(C4)C2)C3)CC1 (centres undefined) | 1.17
9 | CCn1c(C(=O)NC(C)c2ccc3c(c2)OCCO3)cc2sccc21 (centres undefined) | 1.2
10 | CC(Nc1nc(N2CCN(S(C)(=O)=O)CC2)nc2ccccc12)c1ccccc1 (centres undefined) | 0.936
11 | CCC(=O)N(CCC(c1ccccc1)c1ccco1)Cc1cccs1 (centres undefined) | -0.184
12 | CS(=O)(=O)N(CC(=O)Nc1ccccc1C(=O)N1CCOCC1)c1ccc2c(c1)OCO2 | 0.235
13 | CC(C)NS(=O)(=O)c1ccc2c(c1)NCC2 | -0.137
14 | CN(CC(=O)NCCC1=CCCCC1)S(=O)(=O)c1ccc2c(c1)c(=O)n(C)c(=O)n2C | 0.178
15 | c1ccc2c(N3CCOCC3)nc(N3CCOCC3)nc2c1 | 0.0684
16 | Cc1ccc(S(=O)(=O)N2CCN(S(=O)(=O)N(C)C)CC2)c(C)c1 | -0.000969
17 | CC(=O)NC1(C(F)(F)F)NC(=O)N(CC(C)C)C1=O (centres undefined) | -0.417
18 | O=C(c1cnn2ccccc12)N1CCCc2ccccc21 | 0.126
19 | COC(=O)c1ccc(Oc2coc3cc(OCc4cnn(-c5ccccc5)c4)ccc3c2=O)cc1 | -0.142
20 | O=C(NCC(c1cccnc1)N1CCN(c2ccccc2F)CC1)c1cccc(Cl)c1 (centres undefined) | 0.459
21 | COC1(OC)N=C(N)C2(C#N)C(c3ccc(C)cc3)C12C#N (centres undefined) | 0.308
22 | Cn1cc(Cl)c(-c2nc3ccccc3[nH]2)n1 | 0.347

Row | Structure (SMILES) | z-score
23 | Cc1ccccc1-c1nc(CS(=O)(=O)CC(=O)N(C)C2CCCCC2)c(C)o1 | -0.373
24 | COc1cccc(/C(O)=C2\C(=O)C(=O)N(c3ccccn3)C2c2cccc(OC)c2OC)c1 (centres undefined) | -0.797
25 | CC(C)NC(=O)C1CCCN(c2nnc(-n3cccc3)s2)C1 (centres undefined) | 0.428
26 | O=C(NCCOC(=O)c1ccc(C(=O)OCCNC(=O)c2ccccc2)o1)c1ccccc1 | -0.597
27 | O=C(COC(=O)/C=C/c1cccc(Cl)c1)NCCC1=CCCCC1 | -0.31
28 | CS/C(=N\S(=O)(=O)c1cccs1)Nc1ccc(N2CCOCC2)cc1 | 0.986
29 | Cc1cc(C=O)c(C)n1-c1sc2c(c1C(=O)O)CCCC2 | -0.718
30 | CC1CN(C(=O)COC(=O)c2ccc(N)c([N+](=O)[O-])c2)CC(C)O1 (centres undefined) | 0.107
31 | COc1cccc(NC(=O)C2C3CCC4C(CCC32)C4(Cl)Cl)c1 (centres undefined) | 0.14
32 | CC(C)(C)c1ccccc1OCCOCCSc1ncccn1 | -0.0709
33 | COc1cccc(NC(=S)NNC(=O)Cn2nc(C(F)(F)F)cc2C)c1 | 0.573
34 | CC(C(=O)N1CCOCC1)c1ccc([N+](=O)[O-])cc1 (centres undefined) | 0.149
35 | CCC(C)n1c(C)nc2c(c1=O)c1nc3ccccc3nc1n2CCC1=CCCCC1 (centres undefined) | -0.167
36 | O=C(Cn1c(=O)c2c(ncn2Cc2ccccc2)n(Cc2ccccc2)c1=O)NC1CC1 | -0.401
37 | CCCCOc1ccc(C(O)(CC)CCN2CCOCC2)cc1 (centres undefined) | -0.713
38 | COc1ccc(C(=O)n2ccc(C)n2)cc1Br | 0.834
39 | Clc1ccc(Cn2ncc3c(N4CCCCC4)ncnc32)cc1 | -0.535
40 | CCN1CCN(C(=O)c2cc3c(=O)n(C)c4ccccc4c3n2C)CC1 | -0.301
41 | CC1CN(CN2C(=O)c3ccccc3C2=O)CC(C)O1 (centres undefined) | -0.164
42 | O=c1[nH]c2ccc(NC(=S)Nc3ccc(Cl)cc3)cc2[nH]1 | 0.426
43 | CCN(CC)C(=O)CSc1nnc(C2CCCCC2)o1 | 0.599
44 | Cc1ccc(-c2cc(C(=O)NCc3cnn(C)c3C)c3cc(Br)ccc3n2)cc1 | -0.453

Row | Structure (SMILES) | z-score
45 | O=C(CN1CCN(C(=O)c2ccccc2)CC1)Nc1ncc(Br)cc1Br | -0.408
46 | O=[N+]([O-])c1cc2c(cc1/C=N\NS(=O)(=O)c1ccccc1)OCO2 | -0.112
47 | O=C(COC(=O)c1ccc(S(=O)(=O)NCc2ccco2)cc1)NC1CCCCCC1 | -0.145
48 | N#CCCSCc1ccc2oc(C(=O)O)cc2c1 | 1.68
49 | O=C(O)C1CC(=O)n2c(nc3ccccc32)S1 (centres undefined) | 0.555
50 | O=S1(=O)CCN2C(c3ccc4c(c3)CCCC4)=CSC2=N1 | -0.133
51 | COc1ccc(NS(=O)(=O)c2ccc3oc4ccccc4c3c2)cn1 | 0.829
52 | Cn1c(=O)cc(OCC(=O)N2CCC(N3CCCCC3)CC2)c2ccccc21 | 1.05
53 | CC(=O)Nc1sc(/C(C#N)=C\c2cccc(Cl)c2)nc1-c1ccc(C)cc1 | -0.172
54 | NS(=O)(=O)c1ccc(CCNC(=O)c2ccc(S(=O)(=O)N3CCCCC3)cc2)cc1 | -0.222
55 | O=C(CSc1nc2[nH]ncc2c(=O)n1-c1ccccc1Br)NCc1ccco1 | -0.293
56 | Cc1onc(-c2ccccc2)c1C(=O)Nc1ccnn1C1CCCCC1 | 0.16
57 | N#Cc1c(NC(=O)CSc2n[nH]c(N)n2)oc(-c2ccccc2)c1-c1ccccc1 | -1.36
58 | Cc1cc(-c2nn(-c3ccccc3)cc2/C=C2\SC(N)=NC2=O)ccc1OC(C)C | -0.0568
59 | CCCn1c2ccccc2c2nnc(SCC(=O)Nc3nnc(CC(=O)OCC)s3)nc21 | -0.216
60 | CC(C)(C)n1nnnc1C(c1cccs1)N(Cc1cccnc1)Cc1ccccc1Cl (centres undefined) | 0.295
61 | Cc1cccc(NC(=O)CSc2nc(N)cc(N)n2)c1 | -0.298
62 | Cc1ccccc1NC(=O)c1ccc(CN2CCC(Cc3ccccc3)CC2)cc1 | 0.119
63 | CCCC(=O)Nc1ccc(C)c(O)c1 | -0.559
64 | O=C(Cc1ccc([N+](=O)[O-])cc1)NCc1ccc2c(c1)OCO2 | -0.0836
65 | Cc1ccc(NS(C)(=O)=O)c(C(=O)c2ccccc2)c1 | -0.253
66 | Cc1ccc(Nc2c3c(nc4ncnn24)CCC3)cc1 | -0.247

Row | Structure (SMILES) | z-score
67 | COc1ccc(OC)c(/C=C2\SC(=S)N(Cc3cccnc3)C2=O)c1 | -0.477
68 | COc1ccc2nc(SCC(=O)NN)cc(C)c2c1 | 0.0672
69 | CC(C)(C)c1nc(N2CCN(C(=O)c3ccco3)CC2)c2nnn(Cc3ccccc3)c2n1 | 1.15
70 | CC(=O)c1ccc(NS(=O)(=O)c2ccc3ccccc3c2)cc1 | -0.168
71 | COc1ccc(OCCOCC(O)CN2CCOCC2)cc1 (centres undefined) | -0.0013
72 | O=C(NC1CC1)C1CCN(c2ncnc3c2sc2cccc(F)c23)CC1 | -0.454
73 | O=C1CCCN1CCC1CCN(C(=S)Nc2ccc(F)cc2)CC1 | 0.218
74 | CCOc1ccccc1C1CC(=O)Nc2cc(OC)c(OC)c(OC)c21 (centres undefined) | -0.0346
75 | CCOC(=O)C1CCN(C(=O)c2ccc(OC)cc2OC)CC1 | -0.174
76 | COC(=O)c1sc(NC(=O)C2CCCO2)c(C(=O)OC)c1C (centres undefined) | -0.572
77 | Cn1c(Cc2csc(N)n2)nnc1SCC(=O)NC1CCCCC1 | 0.186
78 | c1ccc(CCc2nc(-c3cccnc3)no2)cc1 | -0.0676
79 | O=C(NCCCN1CCN(c2ccccc2F)CC1)Nc1ccc(F)cc1 | 0.279
80 | CC(=O)Nc1cc(C(=O)N2CCc3ccccc3C2)ccc1Sc1ccc(F)cc1 | -0.86
81 | O=S(=O)(Cc1cc(Sc2ccccc2)nc(-c2ccccc2)n1)c1ccccc1 | -0.215
82 | FC(F)(F)c1ccc(N2CCN(c3ncnc4c3nnn4Cc3ccccc3Cl)CC2)cc1 | 0.952
83 | Cn1c(SCC(=O)N2c3ccccc3CCc3ccccc32)nnc1-c1cc2ccccc2cc1O | -0.13
84 | COCCOC(=O)C1=C(N)Oc2c(oc(CO)cc2=O)C1c1c(F)cccc1Cl (centres undefined) | -1.24
85 | COc1cccc(NC(=O)CSc2nc3ccccc3cc2Cc2ccccc2)c1 | -0.102
86 | CCOc1ccc(CCNC(=O)COC(=O)c2nc3nc(C)cc(C)n3n2)cc1OCC | -0.947
87 | Cn1c(N)c(C(=O)COC(=O)c2ccc(Cl)c(S(=O)(=O)N3CCCCC3)c2)c(=O)n(C)c1=O | 0.532
88 | Cc1ncc(CCl)c2c1OC(C)(C)OC2 | -0.259

Row | Structure (SMILES) | z-score
89 | O=C(Cn1ncnn1)OCc1ccccc1Cl | -0.23
90 | Cn1c(=O)c2c(nc(CN3CCN(C(=O)c4ccco4)CC3)n2Cc2ccccc2)n(C)c1=O | 0.297
91 | Cc1cc(N=Cc2c(O)ccc3ccccc23)no1 | 0.291
92 | Cc1cccnc1NCC(O)COc1ccccc1 (centres undefined) | 0.357
93 | O=C(CSc1nc2ccccc2c(=O)n1NC(=O)c1ccccc1)c1ccc(Cl)cc1 | -0.559
94 | Cc1ccc(OCC(=O)N(C)Cc2ccccc2)c([N+](=O)[O-])n1 | -0.265
95 | COc1ccc(NC(=O)C2C3CCC4C(CCC32)C4(Cl)Cl)cc1 (centres undefined) | -0.0986
96 | COc1ccc2cnnc(SCC(=O)Nc3ccccc3)c2c1OC | -0.103
97 | CCOC(=O)C(C(=O)Nc1nccs1)C1CCCCC1 (centres undefined) | -0.538
98 | COc1ccc(-n2c3c(cc(C(=O)N4CCCCC4)c2=O)C(=O)CC(C)(C)C3)cc1 | -0.305
99 | CN(C)S(=O)(=O)N(CC(=O)N(Cc1ccccc1)Cc1ccccc1)c1ccccc1 | -0.385
100 | COc1ccc(OC)c(N2C(N)=NC(N)=NC23CCCC3)c1 | 0.00339
101 | O=C(c1cncc(Br)c1)N1CCN(c2ccc([N+](=O)[O-])cc2)CC1 | -0.309
102 | Cc1ccc(NC(=O)[C@@H]2CCCN2S(=O)(=O)c2ccccc2C(F)(F)F)cc1S(=O)(=O)N1CCOCC1 | -0.247
103 | O=C(NCC1CCCO1)C(c1cccnc1)N(C(=O)Cc1cccs1)c1ccccc1 (centres undefined) | -0.165
104 | COc1cc(C(=O)Nc2nc(-c3cccs3)cs2)cc(OC)c1OC | -0.472
105 | COc1cccc(CNC(=O)c2cc3c(C)nc4ccccc4c3o2)c1 | -0.378
106 | Cc1ccc(/C=C/C2=NN(Cc3ccccc3)C(=O)CC2)cc1 | -0.149
107 | CCOc1ccccc1-c1nc(C(N)=O)c2[nH]c(=O)n(-c3cccc(C)c3)c2n1 | -1.43
108 | CN1CCN(NC(=O)c2ccc(Cl)cc2Cl)CC1 | 0.0866
109 | CCOC(=O)CSC1=C(C#N)C(c2ccc3c(c2)OCO3)CC(=O)N1 (centres undefined) | -0.737
